These results are taken from the supplement of paper PMC11876631.

Where a chain is given by its changes, count along the chain named. Numbers in names are those of the source. ± gives the standard deviation of the averaged measurements. Laboratory Escherichia coli strains with one amino-acid change in an essential protein, pooled on minimal glucose agar with carbenicillin or gentamicin at twice the control MIC (plus kanamycin and chloramphenicol for the plasmids), 48 h. Fold change of barcode share against drug-free plates; higher = less susceptible. Active = above 20 in both replicates (the paper's putatively resistant). '<' = one read or none on drug, '>' = one read or none on a drug-free plate. Shares are relative, so most strains fall below 1 when a few take over. Listed are strains with at least 15 reads on both drug-free plates, and hits; most hits rest on fewer reference reads. Replicate rank correlation about 0.5. Edits are read from barcodes. Where only a bound is given, the exact number is not on record here.

First the molecules themselves.
B1: pyrH M37A (protein)
chain: MATNAKPVYKRILLKLSGEALQGTEGFGIDASILDRAAQEIKELVELGIQVGVVIGGGNLFRGAGLAKAGMNRVVGDHMGMLATVMNGLAMRDALHRAYVNARLMSAIPLNGVCDSYSWAEAISLLRNNRVVILSAGTGNPFFTTDSAACLRGIEIEADVVLKATKVDGVFTADPAKDPTATMYEQLTYSEVLEKELKVMDLAAFTLARDHKLPIRVFNMNKPGALRRVVMGEKEGTLITE
B2: pyrH M37D (protein)
chain: B1 chain with A37D
B3: pyrF I125Q (protein)
chain: MTLTASSSSRAVTNSPVVVALDYHNRDDALAFVDKIDPRDCRLKVGKEMFTLFGPQFVRELQQRGFDIFLDLKFHDIPNTAAHAVAAAADLGVWMVNVHASGGARMMTAAREALVPFGKDAPLLQAVTVLTSMEASDLVDLGMTLSPADYAERLAALTQKCGLDGVVCSAQEAVRFKQVFGQEFKLVTPGIRPQGSEAGDQRRIMTPEQALSAGVDYMVIGRPVTQSVDPAQTLKAINASLQRSA
B4: pyrD V315A (protein)
chain: MYYPFVRKALFQLDPERAHEFTFQQLRRITGTPFEALVRQKVPAKPVNCMGLTFKNPLGLAAGLDKDGECIDALGAMGFGSIEIGTVTPRPQPGNDKPRLFRLVDAEGLINRMGFNNLGVDNLVENVKKAHYDGVLGINIGKNKDTPVEQGKDDYLICMEKIYAYAGYIAINISSPNTPGLRTLQYGEALDDLLTAIKNKQNDLQAMHHKYVPIAVKIAPDLSEEELIQVADSLVRHNIDGVIATNTTLDRSLVQGMKNCDQTGGLSGRPLQLKSTEIIRRLSLELNGRLPIIGVGGIDSVIAAREKIAAGASLAQIYSGFIFKGPPLIKEIVTHI
B5: pyrD I332A (protein)
chain: B4 chain with A315V, I332A
B6: pyrG V13D (protein)
chain: MTTNYIFVTGGVDSSLGKGIAAASLAAILEARGLNVTIMKLDPYINVDPGTMSPIQHGEVFVTEDGAETDLDLGHYERFIRTKMSRRNNFTTGRIYSDVLRKERRGDYLGATVQVIPHITNAIKERVLEGGEGHDVVLVEIGGTVGDIESLPFLEAIRQMAVEIGREHTLFMHLTLVPYMAASGEVKTKPTQHSVKELLSIGIQPDILICRSDRAVPANERAKIALFCNVPEKAVISLKDVDSIYKIPGLLKSQGLDDYICKRFSLNCPEANLSEWEQVIFEEANPVSEVTIGMVGKYIELPDAYKSVIEALKHGGLKNRVSVNIKLIDSQDVETRGVEILKGLDAILVPGGFGYRGVEGMITTARFARENNIPYLGICLGMQVALIDYARHVANMENANSTEFVPDCKYPVVALITEWRDENGNVEVRSEKSDLGGTMRLGAQQCQLVDDSLVRQLYNAPTIVERHRHRYEVNNMLLKQIEDAGLRVAGRSGDDQLVEIIEVPNHPWFVACQFHPEFTSTPRDGHPLFAGFVKAASEFQKRQAK
B7: ribA L86A (protein)
chain: MQLKRVAEAKLPTPWGDFLMVGFEELATGHDHVALVYGDISGHTPVLARVHSECLTGDALFSLRCDCGFQLEAALTQIAEEGRGIALYHRQEGRNIGLLNKIRAYALQDQGYDTVEANHQLGFAADERDFTLCADMFKLLGVNEVRLLTNNPKKVEILTEAGINIVERVPLIVGRNPNNEHYLDTKAEKMGHLLNK
B8: ribA F137Q (protein)
chain: B7 chain with A86L, F137Q
B9: pyrE L122Q (protein)
chain: MKPYQRQFIEFALSKQVLKFGEFTLKSGRKSPYFFNAGLFNTGRDLALLGRFYAEALVDSGIEFDLLFGPAYKGIPIATTTAVALAEHHDLDLPYCFNRKEAKDHGEGGNLVGSALQGRVMQVDDVITAGTAIRESMEIIQANGATLAGVLISLDRQERGRGEISAIQEVERDYNCKVISIITLKDLIAYLEEKPEMAEHLAAVKAYREEFGV
B10: pyrE I182W (protein)
chain: B9 chain with Q122L, I182W
B11: pyrE V123A (protein)
chain: B9 chain with Q122L, V123A
B12: ribC V26W (protein)
chain: MFTGIVQGTAKLVSIDEKPNFRTHVWELPDHMLDGLETGASVAHNGCCLTVTEINGNHVSFDLMKETLRITNLGDLKVGDWVNVERAAKFSDEIGGHLMSGHIMTTAEVAKILTSENNRQIWFKVQDSQLMKYILYKGFIGIDGISLTVGEVTPTRFCVHLIPETLERTTLGKKKLGARVNIEIDPQTQAVVDTVERVLAARENAMNQPGTEA
B13: ribC M99D (protein)
chain: B12 chain with W26V, M99D
B14: rnpA V86A (protein)
chain: MVKLAFPRELRLLTPSQFTFVFQQPQRAGTPQITILGRLNSLGHPRIGLTVAKKNVRRAHERNRIKRLTRESFRLRQHELPAMDFAVVAKKGVADLDNRALSEALEKLWRRHCRLARGS
B15: purH V123D (protein)
chain: MQQRRPVRRALLSVSDKAGIVEFAQALSARGVELLSTGGTARLLAEKGLPVTEVSDYTGFPEMMDGRVKTLHPKVHGGILGRRGQDDAIMEEHQIQPIDMVVVNLYPFAQTVAREGCSLEDADENIDIGGPTMVRSAAKNHKDVAIVVKSSDYDAIIKEMDDNEGSLTLATRFDLAIKAFEHTAAYDSMIANYFGSMVPAYHGESKEAAGRFPRTLNLNFIKKLDMRYGENSHQQAAFYIEENVKEASVATATQVQGKALSYNNIADTDAALECVKEFAEPACVIVKHANPCGVAIGNSILDAYDRAYKTDPTSAFGGIIAFNRELDAETAQAIISRQFVEVIIAPSASEEALKITAAKQNVRVLTCGQWGERVPGLDFKRVNGGLLVQDRDLGMVGAEELRVVTKRQPSEQELRDALFCWKVAKFVKSNAIVYAKNNMTIGIGAGQMSRVYSAKIAGIKAADEGLEVKGSSMASDAFFPFRDGIDAAAAAGVTCVIQPGGSIRDDEVIAAADEHGIAMLFTDMRHFRH
B16: purH V123P (protein)
chain: B15 chain with D123P

The target of this series is Escherichia coli (laboratory strain). The series can be described thus: barcode share on antibiotic plates over drug-free plates; higher = less susceptible. The conditions noted are these: antibiotic: gentamicin; 2× MIC (MIC 0.45 µg/mL). The method, then: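 A pool of E. coli strains, each edited to carry one amino-acid change in an essential protein, was grown for 48 h on minimal glucose agar with or without antibiotic; strain barcodes were sequenced; mean of two replicates.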
With B1, the “fold change of barcode share” value was found to be 0.00721 ± 0.0042.

Regarding B2, the “fold change of barcode share” value is below 0.00806.

As to B3, the “fold change of barcode share” value is below 0.0149.

Turning to B4, the “fold change of barcode share” value is below 0.0188.

For B5, the “fold change of barcode share” value was below 0.0192.

Consider B6, for which the “fold change of barcode share” value is below 0.0176.

In the case of B7, the “fold change of barcode share” value was below 0.0171.

In the case of B8, the “fold change of barcode share” value is below 0.0211.

Regarding B9, the “fold change of barcode share” value was below 0.0152.

In the case of B10, the “fold change of barcode share” value is below 0.0198.

Regarding B11, the “fold change of barcode share” value is below 0.0202.

B12: the “fold change of barcode share” value is below 0.0215.

As to B13, the “fold change of barcode share” value is 45 [active].

In the case of B14, the “fold change of barcode share” value is below 0.0208.

In the case of B15, the “fold change of barcode share” value was 0.00773 ± 0.0072.

For B16, the “fold change of barcode share” value amounted to 0.00364 ± 0.00067.
